± gives the standard deviation of the averaged measurements. Over roughly 4,000 sequences, “arbitrary fluorescence units” has its median near 830; the highest 2% begin near 6,500. Most of the strongest results are missing from this list.
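Further: Full-length recombinant human RUNX1 bound to double-stranded DNA microarray spots, detected with an Alexa488-labelled secondary antibody after the anti-RUNX1 primary, read as scanned spot fluorescence.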

The target in the test is RUNX1 (UniProt Q01196). The experiment in a line: RUNX1 binding intensity (PBM fluorescence), RUNX1 alone (arbitrary fluorescence units); higher = stronger binding. Particulars: RUNX1 concentration 2 nM; ETS1 concentration 0 nM. How it is done: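 gcPBM on 36-bp genomic-derived probes (partner site mutated) containing one RUNX1 site and no ETS1 site. Recombinant human RUNX1 (2 nM) was incubated alone or with ETS1 (25 nM) and detected by anti-RUNX1 antibody fluorescence. Values are medians over 4 replicate spots (not normalised). The probes sit in constant array flanks that are not printed.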
Sequence of UniProt Q01196 (Q01196 whole entry): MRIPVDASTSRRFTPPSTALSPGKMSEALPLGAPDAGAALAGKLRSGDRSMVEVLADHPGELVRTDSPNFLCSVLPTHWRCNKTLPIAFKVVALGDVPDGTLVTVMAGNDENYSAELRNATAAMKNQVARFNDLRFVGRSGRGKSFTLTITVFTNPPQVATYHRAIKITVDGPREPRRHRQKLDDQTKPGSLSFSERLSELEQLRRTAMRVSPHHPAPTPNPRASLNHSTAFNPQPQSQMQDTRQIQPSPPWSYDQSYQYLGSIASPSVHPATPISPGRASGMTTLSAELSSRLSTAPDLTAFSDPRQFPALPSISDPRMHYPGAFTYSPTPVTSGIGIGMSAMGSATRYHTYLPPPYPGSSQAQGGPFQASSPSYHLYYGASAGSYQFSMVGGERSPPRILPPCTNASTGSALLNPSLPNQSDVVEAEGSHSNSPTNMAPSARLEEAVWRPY
Consider GCTGCGGCCCAGCCCGAGCCAGGCCTTGCTCCCCTC, for which the RUNX1 binding intensity was 875.

The sequence AGAATTACCAGGGAGCCGAGCGCTGCGGGCTAGCGG returned an RUNX1 binding intensity of 674.

Sequence GCCAAGAAACCACCCAATAGGAGGCCGTAAGCATCG came in with an RUNX1 binding intensity of 800.

CATGCCCGTCCGACCGCGCTGCTTCGGCCTTGCAGC registered an RUNX1 binding intensity of 778.

CGCCCTCCAGAAGAGAGGGCGGACCGCGGCCGCGCA came in with an RUNX1 binding intensity of 732 ± 64.

GGTCTGGAGGACGTTTGCAGCTGCTGTGGGTGGTGG: the RUNX1 binding intensity is 787.

Turning to AGGCGCGCTCTTGCGGCGTCACGGAGGGCGCGCTCT, the RUNX1 binding intensity worked out at 815.

GGTGTGGTCAAAACAAACCTCCCAGATCCCGTACGT showed an RUNX1 binding intensity of 845.

Turning to GGCGTGGCCGAAGGCGCGCTGCGGCGCTGCTTTCTC, the RUNX1 binding intensity was 721.

The sequence TGAGGCAGTGTAAGTCACAATAAGAAGCCACATATA had an RUNX1 binding intensity of 717.

The sequence CTCACCTCCCCGGCAGCTCCCTCGCCCCGACCGCAG displayed an RUNX1 binding intensity of 1600.

Consider CTTTCGCTCCCTTTCCCCGCCTCTTAGTCCCGCAGA, for which the RUNX1 binding intensity was determined as 1560.

In turn, CCCCTGCGGGCCGCCGCTGCGCCCGTGCAGCCGTCA gave an RUNX1 binding intensity of 830.

Sequence ACGGTAATAACCACACACACTTGCTCTTAATCAGTG had an RUNX1 binding intensity of 1410.

For GACCTCTTTTCATGTACTAGCAACTCCCCGCAGCAG, the RUNX1 binding intensity was 1140.

Sequence GACGCAATCCCACAGCCTTCTGGGAGACGTAGTTTA gave an RUNX1 binding intensity of 930.

The sequence AGACAGTCACTCACCACAAACAGGAGATAGAACAAG gave an RUNX1 binding intensity of 1120.

Consider TGAGTCACACCCTGCAGGGCTGCGGTATCCTGGCTT, for which the RUNX1 binding intensity is 917.

Sequence AATCCAACACCTCCTCCTCCACCGCAGAAAGGCAAC yielded an RUNX1 binding intensity of 1800.

Turning to GCTCGCAGCCGCAAGAGGTGGCCTTCGGTTCCAGGG, the RUNX1 binding intensity is 830.

On to CCTGTCTGCTTCGGCCCGGCTTCGGCCCACAGTCAA, for which the RUNX1 binding intensity was determined as 931.

GGTAAACCACAGCTGCCTGAAGCATGAAGATGAGGG gave an RUNX1 binding intensity of 2050.

With TGGTGGCTATTGCCTCTCCCGCTGTGGTCCCTGGAG, the RUNX1 binding intensity amounted to 666.

GGTGTGGGTGCTGCTCCAGGCTATCGGCTGCTCACC: the RUNX1 binding intensity was 659.

On to AACAGTTGCTTGCGGGATATGCTTTCTTGGATCTGT, for which the RUNX1 binding intensity was determined as 819.

The sequence AAGCTGCGCGGTCCATGGCGCGTATGCCGGGCCCTG returned an RUNX1 binding intensity of 657.

As to CTAACCCTTCTCTTTCTGCAAAAACCACAACAAAGG, the RUNX1 binding intensity worked out at 2930 ± 99.

As to GAAGCCCCGCAATTATTGGGGGGCTTGCTCCCGCGC, the RUNX1 binding intensity worked out at 733.

TAAAGAAACTGGATGACTGTGGTTTACTGCGAGCAT showed an RUNX1 binding intensity of 737.

With TATGCTGGGACCGCTAGCCCTTACGGCGCGCCTCAG, the RUNX1 binding intensity is 683.

In turn, TTGCTGTGGTTTAGTCTCTGCAGCTTTCTGTTGGCT showed an RUNX1 binding intensity of 3060.

The sequence GCCGCTGAAAGCCCACAACCAGCGCAACGCAGGCGA had an RUNX1 binding intensity of 807.

CCGTTACCGCGCTCGTCTTGCCACCTCCTCTGGAGT returned an RUNX1 binding intensity of 1100.

Consider CCCCACGCGGTGTCGGTAACGCGGGAGCCTGTGTCC, for which the RUNX1 binding intensity came out at 866.

GCTAAAGGGAGCTCTGTACAGCTGTGGTAAGGTGGC displayed an RUNX1 binding intensity of 818.

Take CGTCGTCTGGGAAACCGCCGACTTCCAGCCGCGCAG: the RUNX1 binding intensity was 859.

Take CTCGTGTTTTGTGGCTGTGTTCTGTCCGTTCAGTTG: the RUNX1 binding intensity came to 897.6 ± 6.

CTCGGGATTTGTGGTCCACCCGGCTGAACTCGCGGC gave an RUNX1 binding intensity of 788.

Sequence TGCGACGGGAGCTGGAACTTGCTAACCACAAAACCC gave an RUNX1 binding intensity of 2370.

For ATGGATGCGGTTGCTTGCGTGAGGAGATACTTGATG, the RUNX1 binding intensity came out at 1410.

The sequence CTGCGCTTCAGCTTCACCCGGAGTACAGCGGTCCTG had an RUNX1 binding intensity of 754.

GAAGCGCTGGGCGCAAGTGGCTGTGGCTTTGCCCTT: the RUNX1 binding intensity is 735.

With CTCTCTGGGCCGAAGGAACGCGGTCACCCTGAGAAA, the RUNX1 binding intensity amounted to 715.

The sequence ACGACGTCCCTGAAGTGCTGCGGCAATGTTGCTCTT registered an RUNX1 binding intensity of 722.

Turning to TGTCGCCACCGCTGGATGGAGCCTTGCCGGGTCTCC, the RUNX1 binding intensity turned out to be 838.

In turn, TTAAGGAGCTCCCGGGGCCGCGGGTAGAGGCGGGTG gave an RUNX1 binding intensity of 768.

In turn, ATCAGGGGAGACGGCCAAGGTTGCGGGAGTCTCTTC gave an RUNX1 binding intensity of 716.

For AATGAGCCCCACAACCCTTTTCCTTACGGCCTGTGC, the RUNX1 binding intensity was 1000.

CCTGTGGTTGCCTCAGGCCTCAGGACGAAGCTCACT had an RUNX1 binding intensity of 822.

Turning to TCCACAATTCCCAGGAGTCTCTGCGGCCGCGCGGAG, the RUNX1 binding intensity was found to be 830.

CTGGAACCGCAGGATCCTTGCTGCGTCCTCTCGGTC displayed an RUNX1 binding intensity of 2340.

In turn, TGAACTGTGGGCGGGGCACTCTGGGAGCGCAAAAGC had an RUNX1 binding intensity of 767.

As to TAAAACACCATGAAACTCTGTGGTGAGTGGGAGGTG, the RUNX1 binding intensity came to 755.

Turning to CAAAGTGATGGGGCAAATGGTTGTGGTTTTGGGTGG, the RUNX1 binding intensity came to 1320.

CAGGGCCAACCCACTGCGCCAGCATGTTGTCAGGTC yielded an RUNX1 binding intensity of 841.

Take TTACACAACAGTAAACTATGTTTAGCGGTTAATCCA: the RUNX1 binding intensity was 866.

Sequence TGGCATAAATATGTGGTCACTTATCATGCCTTCTCA returned an RUNX1 binding intensity of 835.

On to GTCCCTTGTGGCTACACAGGCAGCAAGCAGGTGGCA, for which the RUNX1 binding intensity was determined as 720.

GGCTCCAAAACCACAGGGCGGAGGCTCCCGCGCGGC: the RUNX1 binding intensity was found to be 2290.

Consider TCCGTGACGTGCGGTGTAGTTGGGGAATCGCACCGT, for which the RUNX1 binding intensity stood at 865.

For the sequence CTAGCTGTGGACTGGAAACGAGTGGTTTTTGTGATC, the RUNX1 binding intensity turned out to be 745.

With TTGCGACTCGCGGTGACCCCTACGCGGCACTCTCTC, the RUNX1 binding intensity worked out at 877.

The record behind these values is the supplement of paper PMC10681739.
